Assay results: PMC9911399, “Two distinct binding modes provide the RNA-binding protein RbFox with extraordinary sequence specificity”
Where a chain is given by its changes, count along the chain named. This is one part of the list.

T1: RBFOX1 RRM (Homo sapiens, UniProt Q9NWB1 109-208)
T1 sequence: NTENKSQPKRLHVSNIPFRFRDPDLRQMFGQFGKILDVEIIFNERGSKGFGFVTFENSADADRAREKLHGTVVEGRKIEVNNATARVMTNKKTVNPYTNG

B1: ACGGAAA (DNA:RNA)
RNA: GGGAGACCGGAAUUCAGAUUGUCCACGGAAAUUAAAUCCCGUCGUAGCCACCA
DNA 1: CAATCTGAATTCCGGTCTCCC
DNA 2: TGGTGGCTACGACGGGATT
B2: AUUAGCA (DNA:RNA)
RNA: B1 RNA with C26U, G27U, G28A, A29G, A30C
DNA 1: CAATCTGAATTCCGGTCTCCC
DNA 2: TGGTGGCTACGACGGGATT
B3: UCCAGAC (DNA:RNA)
RNA: B1 RNA with A25U, G27C, G28A, A29G, A31C
DNA 1: CAATCTGAATTCCGGTCTCCC
DNA 2: TGGTGGCTACGACGGGATT
B4: ACUCAGG (DNA:RNA)
RNA: B1 RNA with G27U, G28C, A30G, A31G
DNA 1: CAATCTGAATTCCGGTCTCCC
DNA 2: TGGTGGCTACGACGGGATT
B5: GUUCACU (DNA:RNA)
RNA: B1 RNA with A25G, C26U, G27U, G28C, A30C, A31U
DNA 1: CAATCTGAATTCCGGTCTCCC
DNA 2: TGGTGGCTACGACGGGATT
B6: CGAUGCG (DNA:RNA)
RNA: GGGAGACCGGAAUUCAGAUUGUCCCGAUGCGUUAAAUCCCGUCGUAGCCACCA
DNA 1: CAATCTGAATTCCGGTCTCCC
DNA 2: TGGTGGCTACGACGGGATT
B7: ACAGGGU (DNA:RNA)
RNA: B1 RNA with G27A, A29G, A30G, A31U
DNA 1: CAATCTGAATTCCGGTCTCCC
DNA 2: TGGTGGCTACGACGGGATT
B8: CGUCAUC (DNA:RNA)
RNA: B6 RNA with A27U, U28C, G29A, C30U, G31C
DNA 1: CAATCTGAATTCCGGTCTCCC
DNA 2: TGGTGGCTACGACGGGATT
B9: AAGCACG (DNA:RNA)
RNA: B1 RNA with C26A, G28C, A30C, A31G
DNA 1: CAATCTGAATTCCGGTCTCCC
DNA 2: TGGTGGCTACGACGGGATT
B10: CAGAUGU (DNA:RNA)
RNA: B1 RNA with A25C, C26A, G28A, A29U, A30G, A31U
DNA 1: CAATCTGAATTCCGGTCTCCC
DNA 2: TGGTGGCTACGACGGGATT
B11: GUCGUAC (DNA:RNA)
RNA: B1 RNA with A25G, C26U, G27C, A29U, A31C
DNA 1: CAATCTGAATTCCGGTCTCCC
DNA 2: TGGTGGCTACGACGGGATT
B12: ACAUAGU (DNA:RNA)
RNA: B1 RNA with G27A, G28U, A30G, A31U
DNA 1: CAATCTGAATTCCGGTCTCCC
DNA 2: TGGTGGCTACGACGGGATT
B13: UUAUUAC (DNA:RNA)
RNA: B6 RNA with C25U, G26U, G29U, C30A, G31C
DNA 1: CAATCTGAATTCCGGTCTCCC
DNA 2: TGGTGGCTACGACGGGATT
B14: CACGUUU (DNA:RNA)
RNA: B1 RNA with A25C, C26A, G27C, A29U, A30U, A31U
DNA 1: CAATCTGAATTCCGGTCTCCC
DNA 2: TGGTGGCTACGACGGGATT
B15: UUCUAGU (DNA:RNA)
RNA: B1 RNA with A25U, C26U, G27C, G28U, A30G, A31U
DNA 1: CAATCTGAATTCCGGTCTCCC
DNA 2: TGGTGGCTACGACGGGATT
B16: AGUCAAC (DNA:RNA)
RNA: B1 RNA with C26G, G27U, G28C, A31C
DNA 1: CAATCTGAATTCCGGTCTCCC
DNA 2: TGGTGGCTACGACGGGATT
B17: CCUCUCA (DNA:RNA)
RNA: B1 RNA with A25C, G27U, G28C, A29U, A30C
DNA 1: CAATCTGAATTCCGGTCTCCC
DNA 2: TGGTGGCTACGACGGGATT
B18: CGGAACG (DNA:RNA)
RNA: B6 RNA with A27G, U28A, G29A
DNA 1: CAATCTGAATTCCGGTCTCCC
DNA 2: TGGTGGCTACGACGGGATT
B19: CGACCUG (DNA:RNA)
RNA: B6 RNA with U28C, G29C, C30U
DNA 1: CAATCTGAATTCCGGTCTCCC
DNA 2: TGGTGGCTACGACGGGATT
B20: CUGGGAG (DNA:RNA)
RNA: B1 RNA with A25C, C26U, A29G, A31G
DNA 1: CAATCTGAATTCCGGTCTCCC
DNA 2: TGGTGGCTACGACGGGATT
B21: GCUUCGU (DNA:RNA)
RNA: B1 RNA with A25G, G27U, G28U, A29C, A30G, A31U
DNA 1: CAATCTGAATTCCGGTCTCCC
DNA 2: TGGTGGCTACGACGGGATT
B22: CUGACGA (DNA:RNA)
RNA: B1 RNA with A25C, C26U, G28A, A29C, A30G
DNA 1: CAATCTGAATTCCGGTCTCCC
DNA 2: TGGTGGCTACGACGGGATT
B23: AAAAAAC (DNA:RNA)
RNA: B1 RNA with C26A, G27A, G28A, A31C
DNA 1: CAATCTGAATTCCGGTCTCCC
DNA 2: TGGTGGCTACGACGGGATT
B24: AGGAAUA (DNA:RNA)
RNA: B1 RNA with C26G, G28A, A30U
DNA 1: CAATCTGAATTCCGGTCTCCC
DNA 2: TGGTGGCTACGACGGGATT
B25: AAUGCGU (DNA:RNA)
RNA: B1 RNA with C26A, G27U, A29C, A30G, A31U
DNA 1: CAATCTGAATTCCGGTCTCCC
DNA 2: TGGTGGCTACGACGGGATT
B26: GUGACCU (DNA:RNA)
RNA: B1 RNA with A25G, C26U, G28A, A29C, A30C, A31U
DNA 1: CAATCTGAATTCCGGTCTCCC
DNA 2: TGGTGGCTACGACGGGATT
B27: GGAGGGG (DNA:RNA)
RNA: B6 RNA with C25G, U28G, C30G
DNA 1: CAATCTGAATTCCGGTCTCCC
DNA 2: TGGTGGCTACGACGGGATT
B28: CGACAUG (DNA:RNA)
RNA: B6 RNA with U28C, G29A, C30U
DNA 1: CAATCTGAATTCCGGTCTCCC
DNA 2: TGGTGGCTACGACGGGATT
B29: AAACCCA (DNA:RNA)
RNA: B1 RNA with C26A, G27A, G28C, A29C, A30C
DNA 1: CAATCTGAATTCCGGTCTCCC
DNA 2: TGGTGGCTACGACGGGATT
B30: UUGAAGU (DNA:RNA)
RNA: B1 RNA with A25U, C26U, G28A, A30G, A31U
DNA 1: CAATCTGAATTCCGGTCTCCC
DNA 2: TGGTGGCTACGACGGGATT
B31: CGUGGUG (DNA:RNA)
RNA: B6 RNA with A27U, U28G, C30U
DNA 1: CAATCTGAATTCCGGTCTCCC
DNA 2: TGGTGGCTACGACGGGATT

Molecular target: T1, RBFOX1 RRM
Test: EMSA; HiTS-Eq, 1 nM pool, 10 min; buffer printed only for the single-RNA assays: 10 mM Tris pH 7.5, 150 mM NaCl, 3.4 mM EDTA, 0.001% NP-40, 30 C
Conditions: tags: His6 N-terminal (pET28a); label: 5' 32P
In short: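 These values rest on relative association constants, computed from read-count changes of each RNA species versus the control reaction and normalised to the cognate motif. Reads came from free RNA recovered by 8% native PAGE after purified RbFox RRM (wild type or mutant) at increasing concentrations was equilibrated for 10 min in 50 µL with 1 nM of a 5′-radiolabelled pool with 7 randomized nucleotides and DNA-annealed flanks.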

Q: Which binding signal does the source give for B1 here?
A: 0.00549 KA relative to UGCAUGU

Q: Which binding signal does the source give for B2 here?
A: 0.00729 KA relative to UGCAUGU

Q: For B3, which binding signal is on record?
A: 0.00816 KA relative to UGCAUGU

Q: Which binding signal does the source give for B4 here?
A: 0.00674 KA relative to UGCAUGU

Q: For B5, which binding signal is on record?
A: 0.00902 KA relative to UGCAUGU

Q: With B6 as the binder, how does the binding signal read?
A: 0.017 KA relative to UGCAUGU

Q: Which binding signal does the source give for B7 here?
A: 0.0107 KA relative to UGCAUGU

Q: For B8, which binding signal is on record?
A: 0.00595 KA relative to UGCAUGU

Q: Which binding signal does the source give for B9 here?
A: 0.0333 KA relative to UGCAUGU

Q: For B10, which binding signal is on record?
A: 0.00845 KA relative to UGCAUGU

Q: B11 was tested. Which binding signal did it give?
A: 0.0102 KA relative to UGCAUGU

Q: Which binding signal does the source give for B12 here?
A: 0.00187 KA relative to UGCAUGU

Q: B13 was tested. Which binding signal did it give?
A: 0.00462 KA relative to UGCAUGU

Q: With B14 as the binder, how does the binding signal read?
A: 0.00574 KA relative to UGCAUGU

Q: For B15, which binding signal is on record?
A: 0.00949 KA relative to UGCAUGU

Q: How did the binding signal turn out when B16 was run?
A: 0.00444 KA relative to UGCAUGU

Q: For B17, which binding signal is on record?
A: 0.00314 KA relative to UGCAUGU

Q: Which binding signal does the source give for B18 here?
A: 0.0344 KA relative to UGCAUGU

Q: How did the binding signal turn out when B19 was run?
A: 0.00886 KA relative to UGCAUGU

Q: With B20 as the binder, how does the binding signal read?
A: 0.0142 KA relative to UGCAUGU

Q: For B21, which binding signal is on record?
A: 0.0175 KA relative to UGCAUGU

Q: With B22 as the binder, how does the binding signal read?
A: 0.0142 KA relative to UGCAUGU

Q: How did the binding signal turn out when B23 was run?
A: 0.00018 KA relative to UGCAUGU

Q: For B24, which binding signal is on record?
A: 0.0109 KA relative to UGCAUGU

Q: How did the binding signal turn out when B25 was run?
A: 0.00977 KA relative to UGCAUGU

Q: B26 was tested. Which binding signal did it give?
A: 0.0126 KA relative to UGCAUGU

Q: For B27, which binding signal is on record?
A: 0.0168 KA relative to UGCAUGU

Q: How did the binding signal turn out when B28 was run?
A: 0.0148 KA relative to UGCAUGU

Q: Which binding signal does the source give for B29 here?
A: 0.00147 KA relative to UGCAUGU

Q: How did the binding signal turn out when B30 was run?
A: 0.015 KA relative to UGCAUGU

Q: For B31, which binding signal is on record?
A: 0.0193 KA relative to UGCAUGU
